{"source": "PubChem BioAssay AID1159614", "about": "(National Center for Advancing Translational Sciences (NCATS), 2016)", "note": "Hit rate of the full screen: of about 45,000 compounds, about 65 (0.1%) were called active. Calls follow the shape of the dose curve; as a rule, active = well fitted activation curve with a large enough effect; inconclusive = small, poorly fitted or top-dose-only effect; inactive = no such curve, though single readings can be large or run the other way. This is one part of the list. Potency is read from the fitted curve at half-maximal effect."}
{"molecular_target": "Galactocerebrosidase (Homo sapiens) (UniProt P54803)", "sequence (P54803 whole entry, looked up)": "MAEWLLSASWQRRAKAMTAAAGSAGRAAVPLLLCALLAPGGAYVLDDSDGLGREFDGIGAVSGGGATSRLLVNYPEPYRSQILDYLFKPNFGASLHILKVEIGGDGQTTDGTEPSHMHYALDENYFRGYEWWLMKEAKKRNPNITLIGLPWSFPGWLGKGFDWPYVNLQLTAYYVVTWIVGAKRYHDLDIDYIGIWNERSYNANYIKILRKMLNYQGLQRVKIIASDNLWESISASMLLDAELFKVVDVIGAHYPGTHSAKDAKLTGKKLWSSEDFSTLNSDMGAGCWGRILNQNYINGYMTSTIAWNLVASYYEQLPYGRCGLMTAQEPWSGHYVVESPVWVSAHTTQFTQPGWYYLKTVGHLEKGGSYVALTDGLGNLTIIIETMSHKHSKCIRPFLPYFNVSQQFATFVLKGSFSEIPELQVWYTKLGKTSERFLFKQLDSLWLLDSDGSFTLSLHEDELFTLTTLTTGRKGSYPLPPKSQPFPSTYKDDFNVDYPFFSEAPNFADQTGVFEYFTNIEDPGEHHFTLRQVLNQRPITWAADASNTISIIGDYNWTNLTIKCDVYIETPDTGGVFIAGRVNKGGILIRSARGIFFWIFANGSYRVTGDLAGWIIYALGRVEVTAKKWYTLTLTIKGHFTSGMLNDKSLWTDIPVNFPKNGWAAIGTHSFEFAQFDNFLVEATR", "assay": "A Novel Cell-Based Assay to Identify Small Molecules for B -Galactocerebrosidase; also: nearly all actives have a fitted effect of over 65% in size; as to activation: 0% is about no effect", "conditions": "145M-Twi-hGALC-G270D cells (Twitcher mouse brain line with human GALC G270D), HMU-beta-Gal fluorescence, 48 h; series mostly up to 57.5 µM; activation: at the top concentration", "method_in_brief": "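Live 145M-Twi cells (Twitcher mouse brain-derived, GALC-null) stably expressing human GALC-G270D, with a wild-type GALC line, were compound-treated. Residual GALC activity was then read as fluorescence from 0.1 mM final HMU-β-gal at pH 5.2; higher signal means activation.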"}
{"smiles": "Cc1ccc(C(=O)Oc2c(S(=O)(=O)c3ccccc3)c(C)nn2-c2ccccc2)cc1", "activation": "inactive: 2.16%"}
{"smiles": "CN1C(=O)c2ccccc2Sc2ccc(NC(=O)NCc3cccc(Cl)c3)cc21", "activation": "inactive: -15.2%"}
{"smiles": "CC[C@H](NC(C)C)[C@H](O)c1ccc(O)c2[nH]c(=O)ccc12", "activation": "inactive: -8.62%"}
{"smiles": "O=c1oc2cc(O)ccc2cc1-c1nnc(Nc2ccccc2F)s1", "activation": "inactive: -13.1%"}
{"smiles": "Cc1c(-c2nc(-c3ccccc3F)no2)nnn1-c1cc(F)ccc1F", "activation": "inactive: -6.9%"}
{"smiles": "Cc1ccc(CNC(=O)CSc2c3c(nc4cc(Cl)ccc24)CCCC3)cc1", "activation": "inactive: -6.22%"}
{"smiles": "CCCNC(=O)C(C)n1nc(C)c2c(C)n(-c3ccccc3)nc2c1=O", "note": "(stereo not given)", "activation": "inactive: -13.6%"}
{"smiles": "CC(C)(C)C1CCc2c(sc(NC(=O)c3cccc(Cl)c3)c2C(N)=O)C1", "note": "(stereo not given)", "activation": "inactive: -17.5%"}
{"smiles": "Cc1c(C(=O)OC2CCCC2)[nH]c2c1C(=O)CC(c1ccc(C(C)(C)C)cc1)C2", "note": "(stereo not given)", "activation": "inactive: -16%"}
{"smiles": "COc1cccc(CNC(=O)CN2C(=O)CSc3ccc(S(=O)(=O)N(C)C)cc32)c1", "activation": "inactive: -19.9%"}
{"smiles": "Cc1ccc(-c2nc3sccn3c2Nc2ccccc2C)cc1", "activation": "inactive: -14.5%"}
{"smiles": "CC1CCN(C(=O)c2cnn(-c3ccc(Cl)cc3)c2C2CCN(C(=O)OC(C)(C)C)CC2)CC1", "activation": "inactive: -14.1%"}
{"smiles": "Cc1cccc(N2CCN(C(=O)c3nn(C)c4c3CSc3ccccc3-4)CC2C)c1", "note": "(stereo not given)", "activation": "inactive: -10.1%"}
{"smiles": "CSCCC(NS(=O)(=O)c1ccc2c(c1)oc(=O)n2C)C(=O)N1CCN(c2cc(Cl)ccc2C)CC1", "note": "(stereo not given)", "activation": "inactive: -18.9%"}
{"smiles": "Cc1cc2c(cc3c(SCc4ccc(Cl)cc4)nnc(C)n32)o1", "activation": "inactive: -9.28%"}
{"smiles": "CCN(CCCNC(=O)c1cc2cc3cc(OC)ccc3nc2s1)c1cccc(C)c1", "activation": "inactive: -17.1%"}
{"smiles": "COc1ccc(NC(=O)CSc2oc(-c3ccc(C)cc3)nc2S(=O)(=O)c2ccc(C)cc2)c(OC)c1", "activation": "inactive: -13.1%"}
{"smiles": "CCC(=O)Oc1c(Sc2ccc(Cl)cc2)c(C)nn1C(C)(C)C", "activation": "inactive: -28.3%"}
{"smiles": "Cc1ccc2nc(-c3ccncc3)c(Nc3ccccc3C)n2c1", "activation": "inactive: -11.7%"}
{"smiles": "CC1=C(c2ccc(C)cc2)S(=O)(=O)N=C1N1CCN(c2ccccc2)CC1", "activation": "inactive: -14.4%"}
{"smiles": "CCC(C)NC(=O)c1cn(CC)c2ccc(S(=O)(=O)N3CCCCC3)cc2c1=O", "note": "(stereo not given)", "activation": "inactive: -15.1%"}
{"smiles": "Cc1ccc(CSC2=Nc3ccccc3C3=NC(CC(=O)NC4CCCCC4)C(=O)N23)c(C)c1", "note": "(stereo not given)", "activation": "inactive: -7.51%"}
{"smiles": "CCc1cccc(NC(=O)CNS(=O)(=O)c2ccc3nc(C)sc3c2)c1", "activation": "inactive: -13.3%"}
{"smiles": "COc1ccc2c(c1)c1c(c(=O)n(-c3cccc(C)c3)c(=O)n1CC(=O)Nc1c(C)cc(C)cc1C)n2C", "activation": "inactive: -3.64%"}
{"smiles": "Cc1cc(C)cc(NC(=O)CN2C(=O)COc3ccc(S(=O)(=O)Nc4ccccc4)cc32)c1", "activation": "inactive: -11.6%"}
{"smiles": "Cc1cn(C)c(CC(=O)NCc2ccc(F)cc2)c1C(=O)O", "activation": "inactive: -5.17%"}
{"smiles": "CCOC(=O)c1ccccc1NC(=O)CSc1nc2ncccc2o1", "activation": "inactive: -5.51%"}
{"smiles": "O=C(Nc1ccc(N2CCC(N3CCCCC3)CC2)c(C(=O)O)c1)c1ccccc1", "activation": "inactive: 13.1%"}
{"smiles": "O=C(COc1ccccc1)N(Cc1cccnc1)c1nc2ccc(Cl)cc2s1", "activation": "inactive: -9.57%"}
{"smiles": "CNS(=O)(=O)c1cn(CC(=O)N2CCN(c3ccc(OC)cc3)CC2)cc1S(=O)(=O)NC", "activation": "inactive: -9.09%"}
{"smiles": "Cc1ccc(NS(=O)(=O)c2ccc3c4c(cccc24)C(=O)N3)c(C)c1", "activation": "inactive: -9.74%"}
{"smiles": "CCn1cc(C(=O)NCc2ccccc2)c(=O)c2cc(S(=O)(=O)N3CCCCC3)ccc21", "activation": "inactive: -14.7%"}
{"smiles": "Cc1cc(Nc2cccc(C(F)(F)F)c2)ncn1", "activation": "inactive: -10.4%"}
{"smiles": "Cc1cccc(-c2nc3c4ccccc4nc(NCc4ccccc4Cl)n3n2)c1", "activation": "inactive: -7.02%"}
{"smiles": "CN(Cc1ccccc1)S(=O)(=O)c1ccc(F)c(C(=O)Nc2ccccc2C(F)(F)F)c1", "activation": "inactive: -3.29%"}
{"smiles": "Cc1ccc(C(NC(=O)Cc2cccs2)C(=O)Nc2ccc(C(C)C)cc2)cc1", "note": "(stereo not given)", "activation": "inactive: -12.5%"}
{"smiles": "Nc1c(C(=O)Nc2cccc(Cl)c2)sc2nc3c(cc12)CN(Cc1ccccc1)CC3", "activation": "inactive: -19%"}
{"smiles": "CCOCCCn1c(=N)c(S(=O)(=O)c2ccc(C)cc2)cc2c(=O)n3ccccc3nc21", "activation": "inactive: 7.03%"}
{"smiles": "CCOC(=O)c1c(NC(=O)C(C)Sc2cn(CCNC(=O)c3ccc(OC)c(OC)c3)c3ccccc23)sc2c1CCC2", "note": "(stereo not given)", "activation": "inactive: -7.14%"}
{"smiles": "COc1ccc(CC(=O)NC2CC(=O)N(c3ccc4c(c3)OCCO4)C2)cc1", "note": "(stereo not given)", "activation": "inactive: -11.5%"}
{"smiles": "CC(C)NC(=O)c1ccc(Cn2c(=O)c3cccn3c3cccnc32)cc1", "activation": "inactive: -4.4%"}
{"smiles": "CCN1CCN(Cc2c(O)ccc3c(=O)c(Oc4ccccc4Cl)c(C(F)(F)F)oc23)CC1", "activation": "inactive: -23.2%"}
{"smiles": "CCOC(=O)c1c(C)oc2nc(C)nc(NCc3ccc(C)cc3)c12", "activation": "inactive: -15.1%"}
{"smiles": "COCCCNc1nc2c(-c3ccccc3)nnn2c2ccccc12", "activation": "inactive: -5.89%"}
{"smiles": "CO[C@]1(NC(=O)CSC(F)F)C(=O)N2C(C(=O)O)=C(CSc3nnnn3CCO)CO[C@H]21", "activation": "inactive: -5.83%"}
{"smiles": "CCOCCCn1c(=N)c(C(=O)NCc2ccco2)cc2c(=O)n3ccccc3nc21", "Potency": "active: 22.4 µM"}
{"smiles": "COc1ccc2nc3sc(C(=O)Nc4cc(Cl)c(OC)cc4OC)cc3cc2c1", "activation": "inactive: -15%"}
{"smiles": "O=C(CSc1nncn2c1cc1sccc12)Nc1ccccc1C(F)(F)F", "activation": "inactive: -12.1%"}
{"smiles": "O=C(NCCC1=CCCCC1)c1ccc2c(c1)N(Cc1ccc(F)cc1)C(=O)c1ccccc1S2(=O)=O", "activation": "inactive: -10.2%"}
{"smiles": "COc1ccc(NC(=O)C2(c3cccs3)CCOCC2)cc1Cl", "activation": "inactive: -5.16%"}
{"smiles": "CCOC(=O)c1c(C)sc(-c2c(-c3ccc4c(c3)OCCO4)[nH]c3c2c(=O)[nH]c(=O)n3C)c1O", "activation": "inactive: -19.5%"}
{"smiles": "COC(=O)c1ccccc1NC(=O)c1cc2nc(-c3ccccc3)cc(-c3ccccc3)n2n1", "activation": "inactive: -13.2%"}
{"smiles": "Cc1ccccc1C(=O)NCC(c1cccnc1)N1CCc2ccccc21", "note": "(stereo not given)", "activation": "inactive: -13.8%"}
{"smiles": "COc1cccc(-n2c(=O)c3sc4ccccc4c3n(CC(=O)Nc3ccc(F)cc3F)c2=O)c1", "activation": "inactive: -4.62%"}
{"smiles": "Cc1ccc(Cl)cc1N1CCN(CCCNc2ncnc3onc(-c4ccc(F)cc4)c23)CC1", "activation": "inactive: -1.26%"}
{"smiles": "COc1ccc(N2CC3=C(C2=O)C(c2ccc(Br)cc2)NC(=O)N3C)cc1", "note": "(stereo not given)", "activation": "inactive: -4.6%"}
{"smiles": "Cc1cc(Nc2sc(C(=O)c3ccc(F)cc3)c(N)c2C(=O)Nc2ccc(F)cc2)ccc1Cl", "activation": "inactive: 0.663%"}
{"smiles": "COc1cc(NC(=O)CSc2nc(C)c(C(=O)Nc3ccccc3)c(-c3ccc(OC)c(OC)c3)c2C#N)c(OC)cc1Cl", "activation": "inactive: -16.7%"}
{"smiles": "O=C1CC(=O)Nc2cc(S(=O)(=O)N3CCOc4ccccc43)ccc2N1", "activation": "inactive: -7.13%"}
{"smiles": "CC(C)CN(CCCNC(=O)CN1C(=O)COc2ccc(S(=O)(=O)N3CCCCCC3)cc21)CC(C)C", "activation": "inactive: -12.2%"}
